About 14,000 (4.5%) of roughly 310,000 compounds showed an effect of 50% or more. Effects have a minus sign here. Some of the results follow.
These molecules were tested against human ether-à-go-go-related gene (hERG) potassium channel (human, UniProt Q12809) (assay: primary screen, population patch clamp on CHO cells stably expressing hERG).
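Also: peak tail current of the secondary pulse compared with the same well before compound.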

human ether-à-go-go-related gene (hERG) potassium channel, sequence (Q12809 whole entry, looked up): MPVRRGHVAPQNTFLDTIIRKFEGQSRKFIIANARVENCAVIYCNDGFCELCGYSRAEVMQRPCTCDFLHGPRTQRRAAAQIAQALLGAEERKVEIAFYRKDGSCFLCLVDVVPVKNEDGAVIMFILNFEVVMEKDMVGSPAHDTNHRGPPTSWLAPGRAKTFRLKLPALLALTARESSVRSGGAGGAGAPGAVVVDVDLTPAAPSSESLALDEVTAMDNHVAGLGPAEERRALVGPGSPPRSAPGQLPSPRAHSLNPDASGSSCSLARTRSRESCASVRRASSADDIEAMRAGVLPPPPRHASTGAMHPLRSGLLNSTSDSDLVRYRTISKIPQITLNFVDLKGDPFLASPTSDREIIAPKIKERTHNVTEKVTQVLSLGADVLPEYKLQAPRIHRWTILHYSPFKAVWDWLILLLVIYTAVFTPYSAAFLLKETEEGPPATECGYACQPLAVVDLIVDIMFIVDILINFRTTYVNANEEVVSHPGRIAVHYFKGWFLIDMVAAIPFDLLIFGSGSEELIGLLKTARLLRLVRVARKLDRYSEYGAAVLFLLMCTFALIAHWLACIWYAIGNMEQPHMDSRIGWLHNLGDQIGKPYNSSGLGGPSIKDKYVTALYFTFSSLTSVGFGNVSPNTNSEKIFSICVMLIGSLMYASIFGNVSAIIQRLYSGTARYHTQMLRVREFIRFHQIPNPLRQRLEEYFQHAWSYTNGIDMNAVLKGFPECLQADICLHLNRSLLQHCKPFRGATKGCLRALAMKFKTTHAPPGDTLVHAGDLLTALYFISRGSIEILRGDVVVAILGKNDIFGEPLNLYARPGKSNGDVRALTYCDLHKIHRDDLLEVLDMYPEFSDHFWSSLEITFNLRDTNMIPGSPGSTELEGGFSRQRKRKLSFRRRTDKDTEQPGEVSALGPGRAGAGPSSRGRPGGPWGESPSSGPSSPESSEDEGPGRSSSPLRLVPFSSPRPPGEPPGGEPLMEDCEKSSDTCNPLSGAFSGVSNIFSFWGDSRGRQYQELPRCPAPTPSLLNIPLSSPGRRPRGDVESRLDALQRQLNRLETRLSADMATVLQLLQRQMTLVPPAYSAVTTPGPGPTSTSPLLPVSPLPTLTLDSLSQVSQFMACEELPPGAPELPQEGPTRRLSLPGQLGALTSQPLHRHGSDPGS

Row | SMILES | hERG current change (%, negative = inhibition) at 10uM [%]
1 | O=C1Nc2ccccc2C(O)(C(=O)N2CCCCC2)N1c1ccccc1 (stereo not shown) | 12.6
2 | Cc1ccc(-n2c(=O)cc(N3CCCCCC3)[nH]c2=O)cc1 | 7.38
3 | O=c1nc(-c2ccccc2)c2cc(SC(F)F)ccc2[nH]1 | -14.8
4 | Cc1cc(C)n(C(N)=NC(=O)c2ccc([N+](=O)[O-])cc2)n1 | 16
5 | O=C(CSc1nnc(-c2ccc(O)cc2)o1)NNC(=O)c1ccncc1 | 12.6
6 | O=C(NCC(=O)N(CCN1CCOCC1)C(C(=O)NC1CCCC1)c1cccnc1)c1cccs1 (stereo not shown) | 13.1
7 | COc1ccccc1C1CCN(C(=O)c2ccco2)CC1 | 4.95
8 | CC1CCCCC1NS(=O)(=O)c1ccc(-n2cnnn2)cc1 (stereo not shown) | -14.4
9 | O=C(c1ccc(N2CCNCC2)cc1)c1cccnc1 | 7.22
10 | CC(=O)N1CCN(CC(=O)c2ccc(Br)cc2)CC1.Cl | -9.46
11 | Cc1cccc(NC(=O)CNC(=O)COc2ccc(-c3ccc(C#N)cc3)cc2)c1C | 4.86
12 | Cc1cc(=O)n2c(C(=O)Nc3ccc(C(=O)OC(C)C)cc3)c(C(=O)Nc3ccccc3)sc2n1 | 19.9
13 | O=C1CCC([N+](=O)[O-])C(c2ccccc2F)N1 (stereo not shown) | 15
14 | CCOc1ccc(C(C(=O)NCC2CCCO2)N(C(=O)c2snc(C(N)=O)c2N)c2ccc(F)cc2)cc1 (stereo not shown) | -18.5
15 | CC(OC(=O)C1CCCO1)C(=O)NC1CCCC1 (stereo not shown) | 2.82
16 | CC(=O)c1ccc(OCc2cc(=O)n3ccsc3n2)cc1 | -1.4
17 | O=C(c1ccc(S(=O)(=O)N2CCCCCC2)cc1)N1CCN(c2ccccn2)CC1 | -22.5
18 | Cc1ccc(C(=O)C[n+]2cccc(C(N)=O)c2)cc1.[Br-] | 15.3
19 | Cc1cccc(C(=O)NC(=S)N(C)C2CCCCC2)c1 | 13.6
20 | CCN(Cc1ccccc1)C(=O)Cn1c(C(C)O)nc2ccccc21 (stereo not shown) | -4.22
21 | Cc1ccc(C(=O)NCC(=O)OC(C)C(=O)Nc2ccc(N(C)C)cc2)s1 (stereo not shown) | -5.52
22 | Cc1c(O)nc2sc3ccccc3n2c1=O | 10.8
23 | O=C(NC1CCCC1)c1cccc(S(=O)(=O)N2CCCC2)c1 | 0.679

Row | SMILES | hERG current change (%, negative = inhibition) at 10uM [%]
24 | Cc1ccc(CC(=O)Nc2nccs2)cc1 | 12.3
25 | C=CCn1c(SCCC)nc(O)cc1=O | 4
26 | Clc1ccc(C2=NNC(=NCc3ccc4c(c3)OCO4)SC2)cc1 | 1.42
27 | COc1ccc(CCNC(=O)CCNS(=O)(=O)c2cc(Br)cnc2N)cc1OC | 7.91
28 | Cc1cccc(NC(=S)NCc2cccs2)c1 | 6.61
29 | Nc1ccc(-c2nc3ccc([N+](=O)[O-])cc3[nH]2)cc1 | 3.33
30 | CC(Oc1ccc(F)cc1)C(=O)Nc1cc(Cl)ccc1-n1cncn1 (stereo not shown) | -28.1
31 | CN1CCN(c2nc3c(c(=O)[nH]c(=O)n3C)n2Cc2ccccc2F)CC1 | 11.9
32 | CC(=O)Nc1ccc(NC(=O)CSc2ccc(-c3sc(C)nc3C)nn2)cc1 | 1.38
33 | Cc1ccc(NC(=O)CCC(=O)NNC(=S)Nc2ccc(F)cc2)c(C)c1 | 8.29
34 | O=C(N/N=C/c1ccc2c(c1)OCO2)c1ccc(NC(=O)c2ccccc2Cl)cc1 | 2.13
35 | CSc1ccccc1NC(=O)c1cc(S(=O)(=O)N(C)C)ccc1N1CCCC1 | -54.7
36 | O=C1CSC(c2ccc(F)c(F)c2)N1c1ccccc1F (stereo not shown) | 10.8
37 | O=C(O)C(=O)O.c1ccc(OCCCN2CCCC2)cc1 | -7.18
38 | CN(CC(=O)Nc1ccc(Cl)cc1)C(=O)Cn1[nH]c(=O)c2ccccc2c1=O | -20.2
39 | CCOc1ccc(NCC(=O)Nc2ccc(C)cc2C)cc1 | 9.14
40 | O=C(OCC(=O)N1CCN(c2ccccc2)CC1)c1ccc2ccccc2n1 | -8.87
41 | O=C(O)/C=C/C(=O)N1CCN(C(=O)/C=C/C(=O)O)CC1 | 6.37
42 | Cc1ccc(-c2n[nH]c3c2C(c2ccccc2)N(c2ccc(C(=O)O)cc2)C3=O)cc1 (stereo not shown) | -43.5
43 | CCC(=O)Nc1ccc(NC(=O)C23CC4CC(CC(C4)C2)C3)cn1 | 7.65
44 | Cc1cc(C)c(OCCCn2ccnc2)c(C)c1 | 5.92
45 | CCN(CC)S(=O)(=O)c1ccc2c(c1)CC(C(=O)N1CCCC1)N2C(C)=O (stereo not shown) | 1.51
46 | COc1ccc(N=Nc2ccc(O)c(P(=O)(c3ccccc3)c3ccccc3)c2)cc1 | 5.99

Row | SMILES | hERG current change (%, negative = inhibition) at 10uM [%]
47 | COc1ccccc1OCCCCN1CCC(C)CC1 | -16
48 | CCOC(=O)c1c(NC(=O)Nc2ccc(F)cc2)sc2c1CCN(C)C2 | -26
49 | O=C(c1ccncc1)c1nccn1-c1ccccn1 | 8.51
50 | CCC1CCC(NC2CCCCNC2=O)CC1 (stereo not shown) | 2.52
51 | O=C(NCCC1=CCCCC1)C1CCN(Cc2cnn(-c3ccccc3)c2-n2cccc2)CC1 | -51.8
52 | COC(=O)c1ccccc1NC(=S)NC(NC(=O)c1ccco1)C(Cl)(Cl)Cl (stereo not shown) | -5.26
53 | COc1ccccc1OCCn1c(=S)[nH]c2ccccc21 | 5.56
54 | CN(C)N=C1c2cc(S(=O)(=O)N(C)C)ccc2-c2ccc(S(=O)(=O)N(C)C)cc21 | 12.7
55 | O=C(CCc1nc2ccccc2[nH]1)NCc1ccc2c(c1)OCO2 | -38.1
56 | CC(=O)c1ccc(OCc2cc(C(=O)N3CC[C@@H]4CCCC[C@H]4C3)no2)cc1 | -3.85
57 | Cc1cc(C)c(N(CC(=O)NCc2ccccc2)C(=O)c2csnn2)c(C)c1 | -3.69
58 | COc1ccc(C(OCC2CO2)c2ccc(OC)cc2)cc1 (stereo not shown) | 14.6
59 | CCNc1nc(OC)nc(SCC(=O)Nc2ccccc2)n1 | 17.2
60 | COCC(C)NCc1cccc(OC)c1OC.O=C(O)C(=O)O (stereo not shown) | 11.8
61 | COCc1cc(=O)n2c([nH]c3ccccc32)c1C#N | -7.46
62 | CCC(=O)NC1=C(NC(C)c2ccccc2)C(=O)c2ccccc2C1=O (stereo not shown) | 5.08
63 | COc1ccc(CCN2CC(C(=O)N(C)Cc3ccc4nsnc4c3)CCC2=O)cc1 (stereo not shown) | -39.6
64 | O=C1CCN(CCc2ccccc2)CCN1[C@H](COc1ccccc1)Cc1ccccc1 | -78.6
65 | CCC1CCCCN1CCCNC(=O)CCCNC(=O)Cn1cnc2sc3c(c2c1=O)CCCC3 (stereo not shown) | 4.46
66 | O=C(CC1NCCc2ccccc21)Nc1ccc(Oc2ccccc2)cc1 (stereo not shown) | -15
67 | CC(C)C(=O)Nc1c(-c2cccc(Cl)c2)c(=O)c2ccccc2n1C | 28.8
68 | O=C(Nc1cccc(C(F)(F)F)c1)Oc1ccccc1N1CCOCC1 | 13.7
69 | COc1ccccc1N1CCN(C(=O)COc2cccc3ccccc23)CC1 | -3.84

Row | SMILES | hERG current change (%, negative = inhibition) at 10uM [%]
70 | CCC(=O)NC(c1ccccc1Cl)c1c(O)ccc2ccccc12 (stereo not shown) | -14.4
71 | Cc1[nH]c2ccccc2c1/C=N/Nc1cccc(C(=O)O)c1 | 4.8
72 | COc1ccc(/C=N/NC(=O)c2ccoc2C)cc1O | -4.47
73 | COc1ccc2c(c1)OC[C@H]1[C@H]2N2C(=O)c3cc(Cl)ccc3NC(=O)[C@@]2(C)[C@H]1c1ccccc1 | -1.2
74 | CC(=O)n1cc(N(C(=O)CCl)c2ccc([N+](=O)[O-])cc2)c2ccccc21 | -57.1
75 | O=C(C1CCCCC1)N(CCN1CCCC1)c1nc2ccccc2s1 | -30.1
76 | Cc1c(Cl)cccc1NC(=O)C(=O)NNC(=O)c1ccccc1F | 2.8
77 | Cc1cc(C)n(CC(=O)NNC(=O)CCNC(=O)c2ccccc2Cl)n1 | -16.1
78 | CC1CCC(NC(=O)CCNC(=O)c2ccc(Br)cc2)CC1 (stereo not shown) | 9.75
79 | c1ccc(-c2n[nH]c(-c3ccccc3)c2-c2nc3ccccc3[nH]2)cc1 | -10.3
80 | Cc1cc(/C=N\NC(=O)CC(=O)NC2CCCCC2)c(C)n1-c1ccc(Cl)cc1 | 3.96
81 | C=CCN(CC=C)C(=O)C(=O)c1ccn(-c2c(C)csc2C(=O)OC)c1 | -70.3
82 | Nc1[nH]nc2nc(N3CCCC3)nc(-c3ccccc3)c12 | 3.94
83 | COC(=O)c1ccc(CS(=O)(=O)c2ccc(C)cc2)o1 | 18.9
84 | Nc1ccc(C(=O)NCC(=O)O)cc1 | 18.1
85 | CC1=C(C(=O)Nc2ccccc2)C(c2cc(CN3CCOCC3)cs2)C2=C(CCCC2=O)N1 (stereo not shown) | 10.9
86 | COc1ccc(C(=O)NC(CCSC)C(=O)NC2CC2)cc1 (stereo not shown) | -9.33
87 | Nc1nc(SCc2ccc(F)cc2)ns1 | 6.5
88 | Cl.O=C(NCCCN1CCOCC1)C(=O)c1c[nH]c2ccccc12 | -3.03
89 | CCCCN(C)C(=O)c1nc2ccccn2c1CN1CCSCC1 | 6.32
90 | Cn1c(=O)[nH]c(=O)c2c1nc(NC1CCCCC1)n2CCO | -16
91 | O=C(O)[C@H](Cc1ccccc1)NC(=O)C(c1ccccc1)(c1ccccc1)c1ccccc1 | 22.6
